# Out of some 310,000 compounds screened, about 14,000 (4.5%) showed an effect of 50% or more. The effect is printed as a negative number. The list shows a part of the results.
# Target: human ether-à-go-go-related gene (hERG) potassium channel (human, UniProt Q12809)
# Experiment: primary screen, population patch clamp on CHO cells stably expressing hERG
# 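Note: peak tail current of the secondary pulse compared with the same well before compound.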
# human ether-à-go-go-related gene (hERG) potassium channel, sequence (Q12809 whole entry, looked up): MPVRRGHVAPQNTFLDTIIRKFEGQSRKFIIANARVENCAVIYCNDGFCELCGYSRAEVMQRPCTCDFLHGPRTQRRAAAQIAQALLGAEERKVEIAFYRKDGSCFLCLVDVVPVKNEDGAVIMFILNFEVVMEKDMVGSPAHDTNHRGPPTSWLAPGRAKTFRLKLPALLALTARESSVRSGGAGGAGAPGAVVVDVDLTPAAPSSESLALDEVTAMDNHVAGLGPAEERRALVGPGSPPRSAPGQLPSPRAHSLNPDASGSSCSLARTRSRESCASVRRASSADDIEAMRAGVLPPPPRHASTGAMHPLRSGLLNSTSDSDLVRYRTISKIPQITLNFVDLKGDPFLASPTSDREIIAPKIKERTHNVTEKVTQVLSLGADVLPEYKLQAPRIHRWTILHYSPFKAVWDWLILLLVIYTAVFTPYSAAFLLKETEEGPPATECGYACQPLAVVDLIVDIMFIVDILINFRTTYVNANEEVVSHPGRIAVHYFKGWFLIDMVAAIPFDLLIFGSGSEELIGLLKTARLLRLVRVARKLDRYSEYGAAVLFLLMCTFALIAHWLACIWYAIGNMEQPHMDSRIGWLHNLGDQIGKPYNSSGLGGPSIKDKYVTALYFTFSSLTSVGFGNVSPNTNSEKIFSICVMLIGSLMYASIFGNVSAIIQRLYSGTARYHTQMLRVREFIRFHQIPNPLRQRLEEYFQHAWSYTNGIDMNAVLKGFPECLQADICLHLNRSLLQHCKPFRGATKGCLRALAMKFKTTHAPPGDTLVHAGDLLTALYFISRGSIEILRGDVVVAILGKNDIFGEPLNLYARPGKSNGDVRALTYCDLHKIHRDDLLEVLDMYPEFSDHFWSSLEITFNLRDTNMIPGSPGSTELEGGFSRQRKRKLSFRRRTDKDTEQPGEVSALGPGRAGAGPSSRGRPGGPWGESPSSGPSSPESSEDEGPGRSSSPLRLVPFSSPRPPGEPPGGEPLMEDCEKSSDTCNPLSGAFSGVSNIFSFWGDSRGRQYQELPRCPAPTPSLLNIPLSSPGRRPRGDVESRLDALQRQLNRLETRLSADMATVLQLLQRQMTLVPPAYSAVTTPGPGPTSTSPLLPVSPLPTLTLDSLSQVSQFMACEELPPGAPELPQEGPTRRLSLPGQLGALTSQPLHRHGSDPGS
row,Structure (SMILES),"hERG current change (%, negative = inhibition) at 10uM [%]"
1,CCCn1c(N)c(C(=O)COC(=O)CCNS(=O)(=O)c2ccccc2F)c(=O)[nH]c1=O,10.3
2,CS(=O)(=O)N(CC(=O)N1CCCC1)c1ccc(OCc2ccccc2)cc1,-15.7
3,Cc1ccc(C)c(CSc2nnc([C@@H]3CCCN3)o2)c1.Cl,5.94
4,COc1ccc(N2C(=O)CSC2c2ccccc2)cc1 (stereo not shown),6.28
5,O=C(CC(Nc1ccccc1Cl)C(=O)O)c1ccccc1 (stereo not shown),10.8
6,Cc1cccc(CCNC(=O)C2CCCN(S(=O)(=O)c3cnc[nH]3)C2)c1 (stereo not shown),3.84
7,CC(C)(C)NC(=O)Cn1c(=O)oc2cc(S(=O)(=O)N3CCc4ccccc43)ccc21,4.37
8,COc1ccc2oc(C(=O)NNC(=O)c3ccc(F)cc3)c(C)c2c1,19.6
9,O=C(OCc1nnc(-c2ccccc2)o1)c1ccc(-n2cnnn2)cc1,-21.6
10,COc1ccccc1NNC(=O)c1cccnc1Oc1ccccc1,5.64
11,O=C(Nc1c2c(nn1-c1ccccc1)CS(=O)C2)c1ccc(Br)o1 (stereo not shown),1.07
12,Cc1cc(N2CCOCC2)nc(SCC(=O)OCc2ccccc2)n1,-13.1
13,CC(=O)Nc1ccc(S(=O)(=O)NC2(C(F)(F)F)C(=O)NC(C)=C2C#N)cc1 (stereo not shown),12.8
14,CCN(CC)C(=O)C(=O)Nc1ccc(OC)c(Cl)c1,28.7
15,Cc1ccc(NC(=O)Cn2nnc(C(=O)NCc3ccco3)c2N)c(C)c1,3.23
16,Cc1ccc(S(=O)(=O)NC(CC(C)C)C(=O)N2CCC(C)CC2)cc1 (stereo not shown),-9.25
17,O=c1oc2ccccc2c(O)c1C=NCc1ccccn1,-3.48
18,Cc1c(NC(=O)CSc2nnc3c4ccccc4n(CCc4ccccc4)c3n2)c(=O)n(-c2ccccc2)n1C,-27.2
19,CC(C)Nc1nc(Cl)nc(Nc2ccccc2)n1,-3.65
20,CCCCCCC(=O)OCC(=O)c1ccc2c(c1)NC(=O)CO2,7.12
21,CC(C)(C)NC(=O)/C=C/c1cccs1,18.6
22,S=C(NCCc1ccccc1)Nc1ccc(Br)cc1,3.43

row,Structure (SMILES),"hERG current change (%, negative = inhibition) at 10uM [%]"
1,CCOc1ccc(S(=O)(=O)N/N=C2/CCCC(=O)C2)cc1,5.81
2,Cl.O=C(CCCN1CCc2[nH]c3ccc(F)cc3c2C1)c1ccc(F)cc1,-70.4
3,Clc1cccc(Cl)c1C1N2CCCN12 (stereo not shown),11.4
4,Cn1cc(CCNC(=O)CC2C(=O)NCCN2CC(c2ccccc2)c2ccccc2)cn1 (stereo not shown),14
5,CCC1(c2ccccc2)C(=O)N(C(=O)OC(C)(C)C)N1C(=O)OC(C)(C)C (stereo not shown),18.2
6,COc1ccc(N2CCN(c3n[nH]c(N)n3)CC2)cc1,5.86
7,C/C(=N\NC(=O)c1cccc(S(=O)(=O)N2CCCC2)c1)c1cccs1,18.6
8,CSc1cccc(NC(=S)N(CCCN2CCCC2)Cc2cccn2Cc2ccc(Cl)cc2)c1,-28.1
9,CC(=O)c1c(C)nc2ccccc2c1N,-10.1
10,COc1ccc(C(=O)NCC(=O)OCc2csc(-c3ccccc3)n2)cc1,7.81
11,COc1cccc(/C=N/NC(=S)NCc2ccco2)c1OC,10.9
12,CC(C)(C)C(=O)NC1CCSC1=O (stereo not shown),8.46
13,Cl.OC1CN=C2C=CC=CN2C1 (stereo not shown),-2.41
14,O=C(c1cnn2cccnc12)N1CCN(Cc2ccc3c(c2)OCO3)CC1,5.97
15,O=C(NC1CCCCCC1)C1CC(=O)N(Cc2ccccc2)C1 (stereo not shown),5.17
16,Cn1ncc(C#N)c1/N=C/N1CCOCC1,6.51
17,COc1cc(CN2CCN(C(=O)c3cccc4ccccc34)CC2)cc(OC)c1O.O=C(O)C(=O)O,-0.297
18,CCOC(=O)N1CCC(NC(=O)CCC(=O)N2CC(C)Oc3ccc(C)cc32)CC1 (stereo not shown),10.8
19,COc1ccc(NC2=NCC(=O)N2c2ccccc2)c(OC)c1.Cl,8.26
20,COc1nc(SC)nc(Cl)c1Cc1ccc(OC(C)C)cc1,-0.66
21,COc1ccc(S(=O)(=O)NCC(=O)N(CC(=O)NCc2ccccc2)Cc2ccco2)cc1,-17
22,CCCS(=O)(=O)C(=C1Nc2ccccc2N1)S(=O)(=O)CCC,1.4

row,Structure (SMILES),"hERG current change (%, negative = inhibition) at 10uM [%]"
1,COCCOC(=O)c1c(C)oc2ccc(NS(=O)(=O)c3ccc(C)cc3)cc12,-15.3
2,Cc1occc1C(=O)Nc1cccc(Cl)c1Cl,-12.5
3,Cc1sc(NC(=O)c2ccco2)c(CN2CCN(Cc3ccccc3)CC2)c1C,3
4,Cn1c(N)c(C(=O)c2ccc(C#N)cc2)c(=O)n(C)c1=O,19.6
5,O=C(Cc1n[nH]c(=O)c2ccccc12)OCC(=O)c1ccc2c(c1)OCCO2,8.98
6,CCCCCC(=O)Nc1ccc(C(=O)COC(=O)Cn2cnc3c2c(=O)n(C)c(=O)n3C)cc1,-26.3
7,Nc1n[nH]c(N)c1N=Nc1ccc(F)cc1,26.7
8,COc1ccc(CN(C)S(=O)(=O)c2nnc(NC(=O)c3ccccc3)s2)cc1OC,1.89
9,CC(c1nc2ccccc2o1)N1C(=O)c2ccccc2C1=O (stereo not shown),2.58
10,O=C(NC(=S)Nc1ccccc1N1CCOCC1)c1ccc(-c2cc(Cl)ccc2Cl)o1,-0.123
11,CN(C)S(=O)(=O)c1cccc(C(=O)Nc2ccc3c(c2)CCC3)c1,-21.9
12,CCOC(=O)COc1ccc(/C=C2/SC(=Nc3ccccc3)N(Cc3cccnc3)C2=O)cc1OC,13.3
13,O=C(Cc1ccsc1)Nc1cc(F)ccc1F,16.3
14,COc1ccc(CNC(=O)C(=O)NCC2OCCN2S(=O)(=O)c2ccc(OC)cc2)cc1 (stereo not shown),2.86
15,O=C(C1=C(O)C(=O)N(CCN2CCOCC2)C1c1cccs1)c1cc2ccccc2o1 (stereo not shown),4.99
16,O=C(Cn1ccc2cc(S(=O)(=O)N3CCCC3)ccc21)NCCc1ccccc1,1.95
17,CC(C)(C)CN1CCN(CC#Cc2ccccc2)CC1CCO (stereo not shown),0.803
18,COc1ccc(/C=N/NC(=O)c2ccc[nH]2)cc1,9.79
19,COc1cc2[nH]c(=S)nc(NCCc3ccc(S(N)(=O)=O)cc3)c2cc1OC,25.3
20,Cc1ccccc1NC(=O)CSc1nc(COc2ccccc2)nc2ccccc12,11
21,Cc1cc(C)c(C(=O)/C=C/c2ccco2)c(=O)[nH]1,-7.77
22,CC(C)(C)c1ccc(C(=O)NCC(=O)OCC(=O)Nc2nc(-c3ccc(F)cc3)cs2)cc1,17.5

row,Structure (SMILES),"hERG current change (%, negative = inhibition) at 10uM [%]"
1,COc1ccc(/C=C/CN2CCN(CCc3ccccc3)C(CCO)C2)cc1 (stereo not shown),-71.9
2,CCCCN(CC)CCNC(=O)C1c2cc(OC)c(OC)cc2C(=O)N2CCc3ccccc3C12 (stereo not shown),-25.9
3,Cc1ccccc1S(=O)Cc1ccc(C(=O)NCCCN2CCCCC2)o1 (stereo not shown),12.5
4,O=C(CSc1nnc2c(n1)[nH]c1ccc(F)cc12)Nc1ccccc1F,19.5
5,CC(=O)c1nc(N2C(=O)CC(Cc3cc(C)cc(C)c3)C2=O)sc1C (stereo not shown),-8.57
6,Cc1cc([N+](=O)[O-])ccc1NC(=O)c1csc(C)c1C,13.3
7,Cc1cccc2c1cnn2C(=O)CCC(=O)NC1CCCCC1,7.26
8,C=CCn1c(-c2c(C)nc3cc(C)ccn23)n[nH]c1=S,-1.51
9,N#CC1=C(N)Oc2cc(O)c(Cl)cc2C1c1cccnc1 (stereo not shown),-12.3
10,CCc1ccc(CCC(=O)Nc2sc(C)c(C)c2C(=O)OC)o1,-8.54
11,CC(=O)Nc1nnc(SCC(=O)N2C(C)CCCC2C)s1 (stereo not shown),12.9
12,O=C(NCc1ccc(Cl)cc1)C1CCN(S(=O)(=O)c2cccc3nonc23)CC1,12.8
13,O=C(c1ccc(N2CCOCC2)cc1)N1CCCC(Nc2ccccc2)C1 (stereo not shown),-0.285
14,Cc1ncc(C[n+]2csc(CCOC(=O)CC3C4CC5CC(C4)CC3C5)c2C)c(N)n1.Cl.[Cl-] (stereo not shown),-19.8
15,COc1ccccc1NC(=O)COC(=O)/C=C/c1ccc2c(c1)OCO2,12.9
16,CC(C)C[C@@H]1NC(=O)[C@H](CO)NC(=O)c2cc([N+](=O)[O-])cc(I)c2OCC[C@@H](C(N)=O)NC1=O,2.3
17,COc1ccc(S(=O)(=O)NCc2ccc(C(=O)N3CCC4(CC3)OCCO4)cc2)cc1,-12
18,CN(C(=O)COC(=O)c1ccc(Cl)c(S(=O)(=O)N2CCCCC2)c1)C1(C#N)CCCCC1,-57.4
19,O=C(Oc1ccc(N(Cc2cccs2)C2=NS(=O)(=O)c3ccccc32)cc1)c1ccccc1Cl,-16.2
20,OCCCn1c(C(CO)Nc2nc(-c3ccc(Cl)cc3)cs2)nc2ccccc21 (stereo not shown),-30
21,O=C(O/N=C\c1ccc(N2CCOCC2)c([N+](=O)[O-])c1)c1ccccc1Cl,-46.6
22,FC(F)(F)c1ccc(N2CCN(c3ncnc4c3nnn4Cc3ccccc3Cl)CC2)cc1,13.3

# From paper PMC4336329 (PLoS ONE, 2015)
